What was measured:
[1] = ADC hydrophobicity evaluation by HIC chromatography (DAR8 peak retention time); assay type: physicochemical; details: HIC retention time of DAR8 peak; later RT = more hydrophobic
Procedure: HIC method: HPLC analysis was carried out under the following measurement conditions: • HPLC system: Waters ACQUITY ARC HPLC System • Detector: measurement wavelength: 280 nm • Column: Tosoh Bioscience 4.6 μm ID×3.5 cm, 2.5 μm butyl-nonporous resin column • Column temperature: 25° C. • Mobile phase A: 1.5 M ammonium sulfate, 50 mM phosphate buffer, pH 7.0 • Mobile phase B: 50 mM phosphate buffer, 25% (V/V) Isopropanol, pH 7.0 • Gradient program: 0% B-0% B (0 min-2 min), 0% B-100% B (2 min-15 min), 100% B-100% B (15 min-16 min), 100% B-0% B (16 min-17 min), 0% B-0% B (17 min-20 min) • Injected sample amount: 20 g
ADC hydrophobicity evaluation: An ADC with a higher hydrophobic property would appear with a later retention time (“RT”) from HIC (hydrophobicity interaction column) chromatography. Results are presented in Tables 2A-2D using the DAR8 peak as a reference.

[2] = test system: NCI-H358 cells; assay: ADC direct cellular killing, NCI-H358 (B7H3-expressing), 3D plates, 6 days; assay type: cell-based, human; details: NCI-H358, 3D
Procedure: NCI-H358 (ATCC, CRL-5807). NCI-H358 cells are epithelial-like cells isolated from the bronchiole of a patient with bronchioalveolar carcinoma. NCI-H358 was purchased from ATCC. The base medium for NCI-H358 is ATCC-formulated RPMI-1640 Medium, ATCC 30-2001. To make the complete growth medium, fetal bovine serum to a final concentration of 10% (Gibco, 10099-141C) was added to the base medium. The cell line was grown in a humidified 5% CO2 atmosphere at 37° C., and was regularly tested for the presence of mycoplasma with MycoAlert™ PLUS Mycoplasma Detection Kit (Lonza, LT07-710).
ADC direct killing was assessed in NCI-H358, NCI-H1048, and MDA-MB-453 cancer lines. Cells were seeded (2E3/well) into 3D 96-well plates (Corning: 4520), 80 μl/well, and incubated at 37° C., 5% CO2, overnight. Fresh growth medium was added containing varying concentrations of ADCs, 40 μl/well, and incubated at 37° C., 5% CO2, for 6 days. The cell viability was detected by 3D reagent (Promega, G9683), 100 μl/well. The 3D plates were allowed to incubate at room temperature for 30 minutes to stabilize the luminescent signal. The plates were analyzed with a microplate reader.
ADC direct cellular killing data are presented in FIGS. 1-15 and Tables 5-9 for U937, HL60, and TF1 cells. ADC direct cellular killing data are presented in FIGS. 16-21 and Tables 10 and 11 for NCI-H358, NCI-H1048, and MDA-MB-453 cells.

[3] = test system: NCI-H1048 cells; assay: ADC direct cellular killing, NCI-H1048 (B7H3-expressing), 3D plates, 6 days; assay type: cell-based, human; details: NCI-H1048, 3D
Procedure: To make the complete growth medium, fetal bovine serum to a final concentration of 10% (Gibco, 10099-141C) was added to the base medium. The cell line was grown in a humidified 5% CO2 atmosphere at 37° C., and was regularly tested for the presence of mycoplasma with MycoAlert™ PLUS Mycoplasma Detection Kit (Lonza, LT07-710).
The plates were analyzed with a microplate reader.

B1: 3-B (conjugate)
heavy: QVQLVQSGAEVKKPGSSVKVSCKASGYTFTNYVMHWVRQAPGQGLEWMGYINPYNDDVKYNEKFKGRVTITADESTSTAYMELSSLRSEDTAVYYCARWGYYGSPLYYFDYWGQGTLVTVSSASTKGPSVFPLAPSSKSTSGGTAALGCLVKDYFPEPVTVSWNSGALTSGVHTFPAVLQSSGLYSLSSVVTVPSSSLGTQTYICNVNHKPSNTKVDKRV[human IgG1 Fc not printed]
light: EIVLTQSPATLSLSPGERATLSCRASSRLIYMHWYQQKPGQAPRPLIYATSNLASGIPARFSGSGSGTDFTLTISSLEPEDFAVYYCQQWNSNPPTFGQGTKVEIKRTVAAPSVFIFPPSDEQLKSGTASVVCLLNNFYPREAKVQWKVDNALQSGNSQESVTEQDSKDSTYSLSSTLTLSKADYEKHKVYACEVTHQGLSSPVTKSFNRGEC
[1]
  DAR8 RT: 14.537 min
[2]
  Emax (%): 81.3%
[3]
  Emax (%): 98.1%

Reference: US20260256936A1, “BIOACTIVE CONJUGATES, PREPARATION METHOD AND USE THEREOF” (priority 2023, published 2026)
